Data as given in patent US20160367664A1 (AGENCY FOR SCIENCE TECHNOLOGY AND RESEARCH, published 2016).

Target: T1, recombinant human interleukin 2 receptor β (IL-2Rβ; CD122) (human, UniProt P14784 27-240)
T1 construct: Recombinant chain immobilised on the SPR chip and used as antigen in the ELISAs; also called human IL-2Rβ
T1 sequence (looked up): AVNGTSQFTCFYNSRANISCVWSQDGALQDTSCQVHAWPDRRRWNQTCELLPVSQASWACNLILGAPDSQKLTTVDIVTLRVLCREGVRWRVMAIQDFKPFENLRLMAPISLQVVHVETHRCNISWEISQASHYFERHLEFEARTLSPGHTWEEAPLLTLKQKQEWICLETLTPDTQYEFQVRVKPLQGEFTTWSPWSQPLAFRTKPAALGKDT
Experiment: ELISA, biotinylated IL-2Rβ titrated on the bispecific antibody; the concentration is that of IL-2Rβ

B1: bispecific antibody clone P2C4/P1A3 with the GGGGSAAA short linker (bispecific antibody)
chain 1: EVQLVQSGAEVKKPGSSVKVSCKASGYTFTNYYMHWVRQAPGQGLEWMGAIMPSRGGTSYPQKFQGRVTMTGDTSTSTVYMELSSLRSEDTAVYYCARGEYYYDSSGYYYWGQGTLVTVSSGGGGSGGGGSGGGGSQSALTQPASVSGSPGQSIAISCTGTSSDIGHYDFVSWYQQHPGTAPKLIIYDINNRPSGISNRFSGSKSDNMASLTISGLQPEDEADYYCSAYTSSDTLVFGGGTKLTVLGGGGSA[not shown - human IgG1 Fc with changes and a few adjoining residues]
chain 2: QVQLQQWGAGLLKPSETLSLTCAVYGGSFSGYYWSWIRQPPGKGLEWIGEINHSGSTNYNPSLKSRATISVDTSKNQFSLKLSSVTAADTAVYYCATSPGGYSGGYFQHWGQGTLVTVSSGGGGSGGGGSGGGGS[not shown - about 100 residues]YCMQGTHWPWTFGQGTKVEIKGGGGSAAATHTCPPCPAPEAAGGPSVFLFPPKPKDTLMISRTPEVTCVVVDVSHEDPEVKFNWYVDGVEVHNAKTKPREEQYNSTYRVVSVLTVLHQDWLNGKEYKCKVSNKALPAPIEKTISKAKGQPREPQVCTLPPSRDELTKNQVSLSCAVKGFYPSDIAVEWESNGQPENNYKTTPPVLDSDGSFFLVSKLTVDKSRWQQGNVFSCSVMHEALHNHYTQKSLSLSPGK
Which “EC50 (read off the curve)” value does the source give for B1 here?
Its value is about 50 nM.
